The other results are listed elsewhere or left out. Many values rest on one well or one pass, so single values are uncertain.
What follows are compounds tested on LB2518-MEL (assay: cell count relative to DMSO control; melanoma cells; higher = more viable cells). Details: library dose: standard library concentration; 72 h.
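Also: cells treated in 1,536-well plates, then fixed and DAPI-stained, with nuclei counted from automated high-throughput microscope images.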

SMILES	cell count [%]
CS(=O)(=O)c1ccc(C(=O)Nc2ccc(Cl)c(-c3ccccn3)c2)c(Cl)c1 [vismodegib] + CCCCCCCCCCCC1=C(O)C(=O)C=C(O)C1=O [Embelin] (first compound 5 µM, partner dose 6 µM)	105
CCCS(=O)(=O)Nc1ccc(F)c(C(=O)c2c[nH]c3ncc(Cl)cc23)c1F + COc1ccc(COc2ccc(Cc3cnc(N)nc3N)cc2OC)cc1 [GW2580] (first compound 0.4 µM, partner dose 5 µM)	99.3
CN(c1ncccc1CNc1nc(Nc2ccc3c(c2)CC(=O)N3)ncc1C(F)(F)F)S(C)(=O)=O + CN(NC(=O)CC(=O)NN(C)C(=S)c1ccccc1)C(=S)c1ccccc1 [STA4783] (first compound 0.4 µM, partner dose 0.03 µM)	17.1
C=C(c1ccc(C(=O)O)cc1)c1cc2c(cc1C)C(C)(C)CCC2(C)C [Bexarotene] + Cc1cc(N2CCOCC2)cc2[nH]c(-c3c(NC[C@@H](O)c4cccc(Cl)c4)cc[nH]c3=O)nc12 [BMS536924] (first compound 10 µM, partner dose 1 µM)	99.7
CN(c1ncccc1CNc1nc(Nc2ccc3c(c2)CC(=O)N3)ncc1C(F)(F)F)S(C)(=O)=O + C#Cc1cccc(Nc2ncnc3cc(OCCOC)c(OCCOC)cc23)c1 [erlotinib] (first compound 0.4 µM, partner dose 4 µM)	65.5
C=C(c1ccc(C(=O)O)cc1)c1cc2c(cc1C)C(C)(C)CCC2(C)C [Bexarotene] + CN(NC(=O)CC(=O)NN(C)C(=S)c1ccccc1)C(=S)c1ccccc1 [STA4783] (first compound 10 µM, partner dose 0.03 µM)	23.7
NC1(c2ccc(-c3nc4ccn5c(=O)[nH]nc5c4cc3-c3ccccc3)cc2)CCC1 + O=C(O)C(=O)Nc1sc2c(c1C(=O)O)CCNC2 [TCS401] (first compound 2 µM, partner dose 8.33333 µM)	62.5
NC1(c2ccc(-c3nc4ccn5c(=O)[nH]nc5c4cc3-c3ccccc3)cc2)CCC1 + O=C(Nc1cccc(Cl)c1)Nc1ncc(CCNc2ncnc3ccsc23)s1 [SNS314] (first compound 2 µM, partner dose 0.004 µM)	72.8
CCCS(=O)(=O)Nc1ccc(F)c(C(=O)c2c[nH]c3ncc(Cl)cc23)c1F + CC(=O)c1c(C)c2cnc(Nc3ccc(N4CCNCC4)cn3)nc2n(C2CCCC2)c1=O [palbociclib] (first compound 0.4 µM, partner dose 0.2 µM)	69
CS(=O)(=O)c1ccc(C(=O)Nc2ccc(Cl)c(-c3ccccn3)c2)c(Cl)c1 [vismodegib] + Cc1cc(N2CCOCC2)cc2[nH]c(-c3c(NC[C@@H](O)c4cccc(Cl)c4)cc[nH]c3=O)nc12 [BMS536924] (first compound 5 µM, partner dose 1 µM)	95.2
CCCS(=O)(=O)Nc1ccc(F)c(C(=O)c2c[nH]c3ncc(Cl)cc23)c1F + CCCCCCCCCCCC1=C(O)C(=O)C=C(O)C1=O [Embelin] (first compound 0.4 µM, partner dose 6 µM)	85.4
NC1(c2ccc(-c3nc4ccn5c(=O)[nH]nc5c4cc3-c3ccccc3)cc2)CCC1 + CC(C)(C)c1cnc(CSc2cnc(NC(=O)C3CCNCC3)s2)o1 [SNS-032] (first compound 2 µM, partner dose 0.05 µM)	55.7
C=C(c1ccc(C(=O)O)cc1)c1cc2c(cc1C)C(C)(C)CCC2(C)C [Bexarotene] + CC(=O)c1c(C)c2cnc(Nc3ccc(N4CCNCC4)cn3)nc2n(C2CCCC2)c1=O [palbociclib] (first compound 10 µM, partner dose 0.2 µM)	59.8
CN(c1ncccc1CNc1nc(Nc2ccc3c(c2)CC(=O)N3)ncc1C(F)(F)F)S(C)(=O)=O + O=C(Nc1ccccc1)c1cc([N+](=O)[O-])ccc1Cl [GW9662] (first compound 0.4 µM, partner dose 10 µM)	79.8
CCCS(=O)(=O)Nc1ccc(F)c(C(=O)c2c[nH]c3ncc(Cl)cc23)c1F + Cc1nc(Nc2ncc(C(=O)Nc3c(C)cccc3Cl)s2)cc(N2CCN(CCO)CC2)n1 [dasatanib] (first compound 0.4 µM, partner dose 0.02 µM)	94.3
CCCS(=O)(=O)Nc1ccc(F)c(C(=O)c2c[nH]c3ncc(Cl)cc23)c1F + C#Cc1cccc(Nc2ncnc3cc(OCCOC)c(OCCOC)cc23)c1 [erlotinib] (first compound 0.4 µM, partner dose 4 µM)	72.6
C=C(c1ccc(C(=O)O)cc1)c1cc2c(cc1C)C(C)(C)CCC2(C)C [Bexarotene] + Nc1nc(F)nc2c1ncn2[C@@H]1O[C@H](CO)[C@@H](O)[C@@H]1O [fludarabine] (first compound 10 µM, partner dose 1 µM)	80.9
CCCS(=O)(=O)Nc1ccc(F)c(C(=O)c2c[nH]c3ncc(Cl)cc23)c1F + O=C1NC(=O)/C(=C/c2ccc(-c3ccc(F)cc3O)o2)S1 [AS252424] (first compound 0.4 µM, partner dose 5 µM)	83.7
NC1(c2ccc(-c3nc4ccn5c(=O)[nH]nc5c4cc3-c3ccccc3)cc2)CCC1 + Oc1nc(-c2ccc(C(F)(F)F)cc2)nc2c1CSCC2 [XAV939] (first compound 2 µM, partner dose 10 µM)	94.3
CS(=O)(=O)c1ccc(C(=O)Nc2ccc(Cl)c(-c3ccccn3)c2)c(Cl)c1 [vismodegib] + O=C(O)C(=O)Nc1sc2c(c1C(=O)O)CCNC2 [TCS401] (first compound 5 µM, partner dose 8.33333 µM)	98.5
CS(=O)(=O)c1ccc(C(=O)Nc2ccc(Cl)c(-c3ccccn3)c2)c(Cl)c1 [vismodegib] + Cn1c(Nc2ccc(C(F)(F)F)cc2)nc2cc(Oc3ccnc(-c4ncc(C(F)(F)F)[nH]4)c3)ccc21 [CHIR265] (first compound 5 µM, partner dose 0.4 µM)	41.8
CN(c1ncccc1CNc1nc(Nc2ccc3c(c2)CC(=O)N3)ncc1C(F)(F)F)S(C)(=O)=O + COc1cc2ncnc(Nc3ccc(Oc4ccccc4)cc3)c2cc1OC [SrcI1] (first compound 0.4 µM, partner dose 10 µM)	97.2
NC1(c2ccc(-c3nc4ccn5c(=O)[nH]nc5c4cc3-c3ccccc3)cc2)CCC1 + Oc1cc(-c2nc(-c3ccccc3)[nH]c2-c2ccncc2)ccc1Cl [L779450] (first compound 2 µM, partner dose 1 µM)	99.4
CS(=O)(=O)c1ccc(C(=O)Nc2ccc(Cl)c(-c3ccccn3)c2)c(Cl)c1 [vismodegib] + C[C@]1(c2nc3c(C(N)=O)cccc3[nH]2)CCCN1 [Veliparib] (first compound 5 µM, partner dose 7 µM)	72.7
